# In patent US11760795B2, “Monoclonal antibodies to growth and differentiation factor 15 (GDF-15), and uses thereof for treating cancer cachexia and cancer” (JULIUS-MAXIMILIANS-UNIVERSITÄT WÜRZBURG, priority 2014, dated 2023):
# T1: hrGDF-15 (Homo sapiens, UniProt Q99988)
# T1 sequence (Q99988 with tags, fused parts or gaps limits assumed): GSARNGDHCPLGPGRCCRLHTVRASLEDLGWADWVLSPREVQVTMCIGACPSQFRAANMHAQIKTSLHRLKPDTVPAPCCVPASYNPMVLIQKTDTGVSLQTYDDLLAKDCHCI
# T2: human GDF-15 (Homo sapiens, UniProt Q99988)
# T2 sequence (Q99988 with tags, fused parts or gaps limits assumed): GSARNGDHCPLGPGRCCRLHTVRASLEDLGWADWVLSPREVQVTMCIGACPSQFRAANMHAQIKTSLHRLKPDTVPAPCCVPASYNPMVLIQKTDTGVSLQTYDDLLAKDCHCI
# Tests used:
# [1] = Study No. 140123: body weight of UACC-257 inoculated mice (cancer-induced weight loss); assay type: in vivo, Balb/c^nu/nu mice; settings: 38 days
# Description: FIG. 5: Treatment of cancer cachexia with anti-GDF-15 antibodies. […] The changes of the body weight are depicted in percent as compared to the starting body weight on day 0, for a period of 38 days.
# (§1) Treatment of cancer-induced weight loss with anti-GDF-15 antibodies. In the underlying animal study No. 140123, 10 Balb/c^nu/nu mice per treatment group were subcutaneously inoculated with 10×10^6 UACC-257 cells per animal in a 1:1 volume ratio with matrigel (100 μl cells+100 μl matrigel). The animals were treated on the same day with the respective antibodies, as indicated below:
# The study was carried out in a double-blinded manner for the treatment with the antibodies and for the treatment with PBS.
# [2] = Study No. 140123: feed consumption of UACC-257 inoculated mice; assay type: in vivo, Balb/c^nu/nu mice
# Description: as §1
# In addition to evaluating the mean body weight of the mice, the feed consumption of the mice was evaluated by pairwise comparisons of the study groups (Table 1).
# hrGDF-15 = molecular target: T1, hrGDF-15; test: Colorimetric ELISA binding to coated hrGDF-15; settings: serial 1:3 dilution from 333 ng/ml; in comparison to B12
# Description: Additionally, by using a colorimetric assay, it was confirmed that all anti-GDF-15 antibodies used in the study bound to GDF-15 in a concentration-dependent manner. To determine the binding of B1-23 antibody variants to GDF-15, a […] ELISA experiment was performed. […] Therefore, Maxisorp 96 well plates (Nunc) were coated with hrGDF-15 (25 ng protein per well, 50 μl volume) over night at 4° C. The following day, plates were washed to remove unbound protein (3 times with 150 μl of PBS 0.05% Tween®) and non-specific binding sites were blocked with 150 μl of PBS 1% BSA for 2 hours at room temperature. Again, plates were washed and different variants of B1-23 test antibodies were applied (50 μl volume). To inquire specificity of the antibody binding, endpoint dilution was performed starting from 333 ng/ml and 1:3 serial dilution. As background control, PBS 1% BSA was applied. Following binding for 1 hour at room temperature, wells were washed as described above. As secondary antibody HRP conjugated Anti-human IgG (Life technologies, 1:5000) was applied for 1 hour at room temperature. Wells were washed as described above to remove unbound secondary antibody. […] For analysis, optical density at 450 nm was quantified using the ELISA reader (Tecan Sunrise) and the corresponding Magellan software.
# human GDF-15 = molecular target: T2, human GDF-15; test: Kd determination by Surface Acoustic Wave (SAW) gold chip biosensors; assay type: binding
# From the text: Determination of Kd values of anti-GDF-15 antibodies. The Kd values of different anti-GDF-15 antibodies were compared using Surface Acoustic Wave (SAW) gold chip biosensors technology (SAW Instruments GmbH, Schwertberger Str. 16, D-53177 Bonn, Germany):
# The murine antibody (B1-23) as well as the chimeric B1-23 antibody were present in purified form. The H1L5 humanized B1-23 antibody was a serum-free CHO cell culture supernatant.
# [3] = Protein A elution at physiological pH and 10 fold concentration via spin columns, turbidity; assay type: physicochemical; settings: TRIS Buffer at physiological pH, from 0.5 mg/ml
# Description: FIG. 7: Improved solubility of the chimeric and the humanized antibody at physiological pH.
# 5 mg of antibody (B1-23, chimeric B1-23=“ChimB1-23”, H1L5) were loaded on Proteus™ protein A columns, eluted and collected in a TRIS Buffer at physiological pH. After elution, the quality of the purified antibodies was assessed by Coomassie Brilliant Blue gel analysis. The concentration of the eluted antibodies was measured photometrically as well as in a Bradford assay (Roti-Quant, Carl Roth, Karlsruhe, Germany). […] The antibodies were then 10 fold concentrated via spin columns (Centricon, MWCO 30). […] All concentrated eluates were then centrifuged for 5 min at 13000 rpm in order to precipitate antibody aggregates. The remaining amount of soluble antibodies was finally determined via Bradford assay from the supernatant.
molecule,measurement,setting,value
"Chimeric B1-23: murine variable domains, human IgG1 constant domains (trastuzumab backbone); heavy chain SEQ ID No: 33, light chain SEQ ID No: 36 (antibody, amino acid sequence of the heavy chain of the chimeric B1-23 anti-GDF-15 antibody; amino acid sequence of the light chain of the chimeric B1-23 anti-GDF-15 antibody) heavy: QVKLQQSGPGILQSSQTLSLTCSFSGFSLSTSGMGVSWIRQPSGKGLEWLAHIYWDDDKRYNPTLKSRLTISKDPSRNQVFLKITSVDTADTATYYCARSSYGAMDYWGQGTSVTVSS[in this place human IgG1 constant region] light: DIVLTQSPKFMSTSVGDRVSVTCKASQNVGTNVAWFLQKPGQSPKALIYSASYRYSGVPDRFTGSGSGTDFTLTISNVQSEDLAEYFCQQYNNFPYTFGGGTKLEIKRTVAAPSVFIFPPSDEQLKSGTASVVCLLNNFYPREAKVQWKVDNALQSGNSQESVTEQDSKDSTYSLSSTLTLSKADYEKHKVYACEVTHQGLSSPVTKSFNRGEC",body weight change compared to day 0,[1],increase in body weight
same,Feed consumption per mouse and day,"[2]; average over day 17-34 intervals, with standard deviation",3.5 ± 0.2 g
same,feed consumption compared with groups which did not receive the anti-GDF-15 antibodies,"[2]; mouse, in vivo",significantly higher
same,binding to GDF-15 in ELISA,hrGDF-15,clearly concentration-dependent binding
same,affinity to human GDF-15 relative to murine B1-23,human GDF-15,about 2 fold
same,aggregation after 10 fold concentration,[3],no signs of aggregation
